# From PubChem BioAssay (Tox21)
# The inconclusive results got no clear call from the source; some entries with a clear call stand among them for comparison. For part of these data: Potencies of inconclusive entries are left out as doubtful fits. Activity calls are given as the source filed them. Unless noted, calls come from the whole dose curve; as a rule, active = well fitted curve in the direction sought with a large enough effect in the repeat runs; inconclusive = weak or mixed curves; inactive = no such curve, though single readings can be large; an effect the other way counts as inactive or inconclusive.
# Key:
# [1] = qHTS assay for identifying genotoxic compounds that show differential cytotoxicity against isogenic chicken DT40 cell lines with known DNA damage response pathways - wild type cell line (AID 743012); details: DT40 wild type chicken cells viability, CellTiter-Glo, 40 h; activity change, negative = cytotoxicity: at 68.4 µM (top of the series) unless noted; note: nearly all actives have a fitted effect of over 60% in size; note: potency is the fitted concentration of half-maximal effect
# How it was run: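 Quantitative HTS on parental DT40 cells: 40 h compound treatment at 37 C/5% CO2, with viability then determined by CellTiter-Glo luminescence. Values serve as the DNA repair-proficient reference for differential cytotoxicity.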
# [2] = molecular target: Androgen receptor (Homo sapiens) (UniProt P10275); test: qHTS assay to identify small molecule antagonists of the androgen receptor (AR) signaling pathway (AID 743035; active = well fitted inhibition curve with a large enough effect in the signal ratio in the repeat runs, not every such curve was filed as active; inconclusive = weak or mixed curves, or effect the other way; inactive = no such curve, though single readings can be large or run the other way; the % refers to the signal ratio; note: potency is the fitted concentration of half-maximal effect; for activity change, negative = inhibition: % is set by controls: 0 for no effect and ±100 for the full control effect); details: HEK293 AR-UAS-bla, R1881-stimulated, beta-lactamase FRET, 16 h; activity change, negative = inhibition: at 58.5 µM (top of the series) unless noted
# How it was run: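 Cell line: GeneBLAzer AR-UAS-bla GripTite (HEK293). Stimulus: R1881 added after compound. Exposure: 16 h, 37C, 5% CO2. Readout: LiveBLAzer B/G FRET fluorescence after 2 h at room temperature.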
# [3] = molecular target: Androgen receptor (Homo sapiens) (UniProt P10275); test: qHTS assay to identify small molecule agonists of the androgen receptor (AR) signaling pathway (AID 743036; active = well fitted activation curve with a large enough effect in the signal ratio in the repeat runs, with a control signal flat, not every such curve was filed as active; inconclusive = weak or mixed curves, or effect the other way; inactive = no such curve, though single readings can be large or run the other way; the % refers to the signal ratio; note: potency is the fitted concentration of half-maximal effect; for activation: % is set by controls: 0 for no effect and ±100 for the full control effect); details: HEK293 AR-UAS-bla GripTite, beta-lactamase FRET ratio, 16 h; activation: at 62.4 µM (top of the series) unless noted
# How it was run: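 AR-UAS-bla HEK293 cells, plated 4 h before dosing, were treated with compound for 16 h at 37C. beta-Lactamase reporter read after 2 h with LiveBLAzer B/G FRET substrate at room temperature.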
# [4] = molecular target: Androgen receptor (Homo sapiens) (UniProt P10275); test: qHTS assay to identify small molecule antagonists of the androgen receptor (AR) signaling pathway using the MDA cell line (AID 743042; note: potency is the fitted concentration of half-maximal effect; nearly all actives have a fitted effect of over 55% in size)
# How it was run: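 MDA-kb2 breast carcinoma cells carrying MMTV-luciferase (AR/GR responsive) were co-treated with compounds and the agonist R1881 for 16 h at 37C. Inhibition read as ONE-Glo luminescence; CellTiter-Fluor fluorescence measured in parallel for cytotoxicity.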
# [5] = test system: thyroid hormone receptor (rat, GH3 cells); test: qHTS assay to identify small molecule agonists of the thyroid receptor (TR) signaling pathway (AID 743066; calls by dose curve; note: % is set by controls: 0 for no effect and ±100 for the full control effect); details: GH3.TRE-Luc cells, TR agonist luciferase, 24 h; activation: at 83.9 µM (top of the series) unless noted
# [6] = molecular target: Estrogen receptor (Homo sapiens) (UniProt P03372); test: qHTS assay to identify small molecule antagonists of the estrogen receptor alpha (ER-alpha) signaling pathway (AID 743069; active = well fitted curve in the direction sought with a large enough effect in the signal ratio in the repeat runs, not every such curve was filed as active; inconclusive = weak or mixed curves, or effect the other way; inactive = no such curve, though single readings can be large or run the other way; the % refers to the signal ratio; note: potency is the fitted concentration of half-maximal effect); details: HEK293 ER-alpha-UAS-bla, beta-lactamase ratio, antagonist mode; activity, negative = inhibition: at 69.4 µM (top of the series) unless noted
# How it was run: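 HEK293 ER-alpha-UAS-bla GripTite cells, held overnight in 2% charcoal-stripped FBS, 5,000 cells/well, preincubated 4 h, then compound plus 17beta-estradiol for 18 h at 37C. Beta-lactamase read by LiveBLAzer B/G FRET substrate, 2 h at room temperature.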
# [7] = molecular target: Estrogen receptor (Homo sapiens) (UniProt P03372); test: qHTS assay to identify small molecule agonists of the estrogen receptor alpha (ER-alpha) signaling pathway using the BG1 cell line (AID 743079); details: BG1Luc4E2 cells, ERE-luciferase agonist, 22 h; activation: at 70.3 µM (top of the series) unless noted; note: nearly all actives have a fitted effect of over 20% in size; note: potency is the fitted concentration of half-maximal effect
# [8] = qHTS assay to identify small molecule antagonists of the thyroid receptor (TR) signaling pathway - cell viability counter screen (AID 743064); details: GH3.TRE-Luc viability, CellTiter-Fluor, 24 h; activity change, negative = cytotoxic: at 70.3 µM (top of the series) unless noted; note: nearly all actives have a fitted effect of over 50% in size; note: potency is the fitted concentration of half-maximal effect; for activity change, negative = cytotoxic: % is set by controls: 0 for no effect and ±100 for the full control effect
# How it was run: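 GH3.TRE-Luc rat pituitary cells dosed after 4 hr plating, co-stimulated with T3 at 1 nM final, incubated 23.5 h at 37 C. Viability measured in the same wells by CellTiter-Fluor fluorescence after 30 min further at 37 C.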
# [9] = qHTS assay to identify small molecule antagonists of the androgen receptor (AR) signaling pathway using the MDA cell line - cell viability counter screen (AID 743041; note: nearly all actives have a fitted effect of over 45% in size; note: potency is the fitted concentration of half-maximal effect); details: MDA-kb2 viability, CellTiter-Fluor, 16 h, cells co-treated with R1881 androgen agonist; viability change, negative = cytotoxic: at 70.3 µM (top of the series) unless noted
# How it was run: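 MDA-kb2 AR-luc cells (MMTV-luciferase, AR/GR responsive) treated with compounds plus R1881 agonist for 16 h at 37C. CellTiter-Fluor added at 15.5 h; fluorescence read after 30 min in the same wells.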
# [10] = qHTS assay to identify aromatase inhibitors - cell viability counter screen (AID 743084); details: MCF-7 aro ERE viability, CellTiter-Fluor, 24 h; activity change, negative = cytotoxicity: at 70.3 µM (top of the series);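 note: cells stimulated with testosterone during compound exposure; nearly all actives have a fitted effect of over 55% in size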; note: potency is the fitted concentration of half-maximal effect
# [11] = qHTS assay to identify small molecule antagonists of the androgen receptor (AR) signaling pathway - cell viability counter screen (AID 743033; note: % is set by controls: 0 for no effect and ±100 for the full control effect; nearly all actives have a fitted effect of over 45% in size); details: AR-bla HEK293 viability, CellTiter-Glo luminescence, 16 h; activity change, negative = cytotoxicity: at 58.5 µM (top of the series)
# [12] = qHTS assay to identify small molecule antagonists of the estrogen receptor alpha (ER-alpha) signaling pathway - cell viability counter screen (AID 743074; calls by dose curve;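 note: HEK293 cells carrying ER-alpha-UAS-bla reporter stimulated with 17beta-estradiol; nearly all actives have a fitted effect of over 45% in size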; note: potency is the fitted concentration of half-maximal effect)
# [13] = qHTS assay to identify small molecule antagonists of the thyroid receptor (TR) signaling pathway (AID 743065); note: potency is the fitted concentration of half-maximal effect; nearly all actives have a fitted effect of over 55% in size
# How it was run: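 GH3.TRE-Luc rat pituitary cells (two TREs driving luciferase) were dosed with compound, then stimulated with 1 nM T3 (final) for 23.5 h at 37 C. ONE-Glo luminescence was the read-out, with CellTiter-Fluor fluorescence as the cytotoxicity counter-screen.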
# [14] = qHTS assay to identify small molecule antagonists of the estrogen receptor alpha (ER-alpha) signaling pathway using the BG1 cell line - cell viability counter screen (AID 743081);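 note: compound given together with 17beta-estradiol as the ER stimulus; nearly all actives have a fitted effect of over 45% in size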; note: potency is the fitted concentration of half-maximal effect
# [15] = molecular target: Aromatase (Homo sapiens) (UniProt P11511); test: qHTS assay to identify aromatase inhibitors (AID 743083); note: potency is the fitted concentration of half-maximal effect; nearly all actives have a fitted effect of over 55% in size
# Tags give direction and shape of the fitted curve or compound fluorescence and quenching.
# Chain of UniProt P10275 (P10275 whole entry, looked up): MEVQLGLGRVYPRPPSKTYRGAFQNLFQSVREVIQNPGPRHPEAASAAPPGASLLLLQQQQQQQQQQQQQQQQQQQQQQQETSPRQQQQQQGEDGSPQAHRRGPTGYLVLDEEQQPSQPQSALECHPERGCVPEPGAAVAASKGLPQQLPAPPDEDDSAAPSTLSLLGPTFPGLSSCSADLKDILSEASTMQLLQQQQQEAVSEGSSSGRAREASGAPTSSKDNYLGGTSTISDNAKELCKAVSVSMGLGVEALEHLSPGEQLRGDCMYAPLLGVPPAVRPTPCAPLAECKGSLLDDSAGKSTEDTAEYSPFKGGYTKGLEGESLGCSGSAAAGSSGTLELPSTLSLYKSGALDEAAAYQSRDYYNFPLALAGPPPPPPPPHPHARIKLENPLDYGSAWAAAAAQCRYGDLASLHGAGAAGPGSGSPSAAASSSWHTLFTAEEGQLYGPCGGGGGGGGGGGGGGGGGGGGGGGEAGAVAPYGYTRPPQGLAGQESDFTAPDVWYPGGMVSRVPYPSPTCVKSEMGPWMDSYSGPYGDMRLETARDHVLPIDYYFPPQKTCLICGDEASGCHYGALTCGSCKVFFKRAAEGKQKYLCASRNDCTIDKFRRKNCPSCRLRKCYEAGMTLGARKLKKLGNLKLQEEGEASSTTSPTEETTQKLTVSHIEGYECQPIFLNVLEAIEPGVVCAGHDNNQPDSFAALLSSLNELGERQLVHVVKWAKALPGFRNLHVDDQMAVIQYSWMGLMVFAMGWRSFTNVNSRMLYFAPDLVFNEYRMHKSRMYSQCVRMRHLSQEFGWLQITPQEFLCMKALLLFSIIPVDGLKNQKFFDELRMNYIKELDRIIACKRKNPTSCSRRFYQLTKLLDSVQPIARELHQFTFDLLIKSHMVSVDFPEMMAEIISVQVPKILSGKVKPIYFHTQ
# Chain of UniProt P03372 (P03372 whole entry, looked up): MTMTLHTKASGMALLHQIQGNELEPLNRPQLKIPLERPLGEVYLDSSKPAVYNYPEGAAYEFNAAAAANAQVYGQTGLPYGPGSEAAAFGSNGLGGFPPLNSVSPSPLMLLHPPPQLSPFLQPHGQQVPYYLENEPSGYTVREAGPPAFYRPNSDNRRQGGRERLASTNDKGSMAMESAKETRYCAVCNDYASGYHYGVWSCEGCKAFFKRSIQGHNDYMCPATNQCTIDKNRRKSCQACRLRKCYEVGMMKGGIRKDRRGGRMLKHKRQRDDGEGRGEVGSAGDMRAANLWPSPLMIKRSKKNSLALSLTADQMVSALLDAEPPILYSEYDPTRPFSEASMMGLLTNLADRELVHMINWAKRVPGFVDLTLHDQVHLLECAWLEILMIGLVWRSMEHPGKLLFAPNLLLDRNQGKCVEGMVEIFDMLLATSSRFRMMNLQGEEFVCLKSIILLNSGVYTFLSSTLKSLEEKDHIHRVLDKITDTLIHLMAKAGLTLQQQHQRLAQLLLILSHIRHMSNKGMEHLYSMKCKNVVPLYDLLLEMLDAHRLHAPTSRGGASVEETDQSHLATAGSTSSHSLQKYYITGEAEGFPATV
# Chain of UniProt P11511 (P11511 whole entry, looked up): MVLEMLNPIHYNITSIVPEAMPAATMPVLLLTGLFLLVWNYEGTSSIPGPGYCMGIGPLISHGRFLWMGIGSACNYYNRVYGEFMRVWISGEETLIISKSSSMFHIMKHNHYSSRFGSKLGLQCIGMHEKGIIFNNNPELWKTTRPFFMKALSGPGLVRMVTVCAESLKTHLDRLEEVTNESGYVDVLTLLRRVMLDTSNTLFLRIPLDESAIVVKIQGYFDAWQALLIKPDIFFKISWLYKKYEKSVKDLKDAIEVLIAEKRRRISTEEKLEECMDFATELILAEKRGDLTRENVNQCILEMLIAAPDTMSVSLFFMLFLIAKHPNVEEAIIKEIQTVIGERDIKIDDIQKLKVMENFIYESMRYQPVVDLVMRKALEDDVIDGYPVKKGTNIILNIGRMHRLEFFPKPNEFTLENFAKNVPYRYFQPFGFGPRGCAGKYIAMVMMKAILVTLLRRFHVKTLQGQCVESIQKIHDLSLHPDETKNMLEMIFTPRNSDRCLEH
smiles,measurement,setting,value
CC1=NC(C)OC1C (stereo not given),Potency,[1],"inconclusive [cytotoxic, partial curve, poor fit]"
same,Potency,[2],inconclusive
same,activation,[3],inconclusive: 6.72%
same,Potency,[4],"inconclusive [inhibitor, partial curve, poor fit]"
same,Potency,[5],inactive
same,Potency,[6],inconclusive [activator]
same,Potency,[7],"inconclusive [activator, partial curve, poor fit]"
CCOC(=O)COc1cc(-n2ncc(C(F)(F)F)c(C)c2=O)c(F)cc1Cl,Potency,[1],"inconclusive [cytotoxic, single point]"
same,Potency,[2],inactive
same,Potency,[8],inactive
CCCCc1ccc2cccc(S(=O)(=O)O)c2c1,Potency,[1],inactive
same,Potency,[2],inactive
same,Potency,[3],inactive
O=C(O)COc1ccc2ccccc2c1,Potency,[1],inconclusive
same,Potency,[9],inactive
Cc1ncc(CSSCc2cnc(C)c(O)c2CO)c(CO)c1O,Potency,[1],inactive
same,"activity change, negative = inhibition",[2],inconclusive: 1.71%
same,Potency,[10],inactive
O=C(O)c1ccc(O)cc1,Potency,[1],inactive
same,Potency,[11],inactive
same,Potency,[12],"inconclusive [cytotoxic, single point]"
NCC1CCCC(CN)C1 (stereo not given),Potency,[1],"inconclusive [rising, full curve, poor fit]"
same,Potency,[2],inactive
O=C(O)c1cc(-c2ccc(F)cc2F)ccc1O,Potency,[1],inactive
same,Potency,[11],inactive
same,Potency,[7],inactive
O=C(O)CCCCCCCCCC(=O)O,Potency,[1],active: 30.6 µM
same,"activity change, negative = inhibition",[2],inconclusive: -46.6%
same,Potency,[3],"inconclusive [rising, full curve]"
same,Potency,[8],"inconclusive [rising, partial curve]"
same,Potency,[13],"inconclusive [inhibitor, partial curve, poor fit]"
CC(=O)NNC(C)=O,Potency,[1],inactive
same,Potency,[11],inactive
same,Potency,[14],inactive
CC(C(=O)O)c1ccc2c(c1)Cc1cccnc1O2 (stereo not given),Potency,[1],inactive
same,"activity change, negative = inhibition",[2],inconclusive: 37.4%
same,Potency,[3],"inconclusive [rising, partial curve, poor fit]"
same,Potency,[12],inactive
CN1CCC(Nc2ncc3ncnc(Nc4ccc(F)c(Cl)c4)c3n2)CC1,Potency,[1],active: 13.3 µM
same,Potency,[2],"inconclusive [rising, full curve]"
same,Potency,[3],"inconclusive [fluorescent, partial curve, poor fit]"
same,Potency,[9],"inconclusive [rising, partial curve, poor fit]"
same,Potency,[13],active: 9.44 µM
same,activation,[5],inconclusive: -9.06% [phenotype inactive]
same,Potency,[14],"inconclusive [cytotoxic, full curve]"
same,Potency,[15],"inconclusive [inhibitor, single point]"
same,Potency,[10],inconclusive [cytotoxic]
O=C(O)c1cc(Cl)cc(Cl)c1O,Potency,[1],"inconclusive [rising, partial curve, poor fit]"
same,"activity change, negative = inhibition",[2],inconclusive: 8.09%
same,Potency,[3],inactive
same,Potency,[13],"inconclusive [inhibitor, partial curve, poor fit]"
CC1C(C)(C)C2=C(C(=O)CCC2)C1(C)C (stereo not given),Potency,[1],inactive
same,Potency,[8],"inconclusive [rising, partial curve]"
COc1ccccc1N=Nc1c(S(=O)(=O)O)cc2cc(S(=O)(=O)O)cc(NC(C)=O)c2c1O,Potency,[1],active: 28.8 µM
same,Potency,[8],active: 32.3 µM
same,Potency,[13],"inconclusive [inhibitor, partial curve]"
same,Potency,[5],inactive
same,Potency,[14],active: 28.8 µM
same,Potency,[15],"inconclusive [inhibitor, partial curve]"
same,Potency,[10],active: 20.4 µM
